{"sequences": {"note": "Sequences of proteins named here, by UniProt entry; tags and fusion partners are left off. A change or cut given only in a name is not applied to a line headed by its entry. A line that says so, or that is headed by a name, gives the form on record, which may keep a tag or linker. Residues count along the entry.", "UniProt Q02248": "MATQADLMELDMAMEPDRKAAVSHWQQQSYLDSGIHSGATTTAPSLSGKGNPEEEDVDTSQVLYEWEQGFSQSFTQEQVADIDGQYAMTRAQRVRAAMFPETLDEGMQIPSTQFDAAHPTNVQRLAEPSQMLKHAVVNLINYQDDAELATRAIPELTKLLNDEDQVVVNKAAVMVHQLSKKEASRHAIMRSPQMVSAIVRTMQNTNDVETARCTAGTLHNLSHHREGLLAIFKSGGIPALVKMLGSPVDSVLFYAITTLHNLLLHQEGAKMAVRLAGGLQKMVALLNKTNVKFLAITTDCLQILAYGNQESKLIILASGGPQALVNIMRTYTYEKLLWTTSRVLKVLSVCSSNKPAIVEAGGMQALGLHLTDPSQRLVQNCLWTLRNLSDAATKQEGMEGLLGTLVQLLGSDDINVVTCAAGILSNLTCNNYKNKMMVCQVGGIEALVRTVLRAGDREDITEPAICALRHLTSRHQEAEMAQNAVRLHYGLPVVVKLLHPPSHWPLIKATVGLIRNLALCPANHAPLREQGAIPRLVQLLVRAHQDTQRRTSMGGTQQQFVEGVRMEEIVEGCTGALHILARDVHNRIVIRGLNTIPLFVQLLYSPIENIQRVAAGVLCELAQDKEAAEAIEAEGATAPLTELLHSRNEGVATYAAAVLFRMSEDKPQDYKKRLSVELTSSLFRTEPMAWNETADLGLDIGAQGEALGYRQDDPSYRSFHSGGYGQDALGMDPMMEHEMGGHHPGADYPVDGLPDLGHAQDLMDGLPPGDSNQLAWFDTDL", "GST-ΔN89-β-catenin (90–781)": "residues 90-781 of Q02248", "GST-β-catenin (90–694)": "residues 90-694 of Q02248", "GST-ΔN89-β-catenin-D164A (Q02248, form named)": "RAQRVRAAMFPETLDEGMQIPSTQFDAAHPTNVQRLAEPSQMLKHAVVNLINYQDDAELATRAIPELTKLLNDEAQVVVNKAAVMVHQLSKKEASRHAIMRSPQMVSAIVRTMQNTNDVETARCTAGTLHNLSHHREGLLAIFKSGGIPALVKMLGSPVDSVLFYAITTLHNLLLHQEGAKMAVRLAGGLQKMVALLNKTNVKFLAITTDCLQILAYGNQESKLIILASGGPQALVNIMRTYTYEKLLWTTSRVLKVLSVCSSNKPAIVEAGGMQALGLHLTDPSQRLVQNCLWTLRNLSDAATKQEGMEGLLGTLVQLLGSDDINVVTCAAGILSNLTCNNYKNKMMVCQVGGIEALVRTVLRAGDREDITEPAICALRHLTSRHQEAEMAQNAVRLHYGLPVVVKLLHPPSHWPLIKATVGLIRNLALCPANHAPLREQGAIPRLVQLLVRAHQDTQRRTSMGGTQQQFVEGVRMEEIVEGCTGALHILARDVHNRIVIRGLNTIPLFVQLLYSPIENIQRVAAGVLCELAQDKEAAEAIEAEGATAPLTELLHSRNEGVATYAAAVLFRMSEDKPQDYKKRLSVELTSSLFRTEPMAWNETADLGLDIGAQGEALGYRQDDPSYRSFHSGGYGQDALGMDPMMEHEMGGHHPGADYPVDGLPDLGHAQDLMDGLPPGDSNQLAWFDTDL", "UniProt O35085": "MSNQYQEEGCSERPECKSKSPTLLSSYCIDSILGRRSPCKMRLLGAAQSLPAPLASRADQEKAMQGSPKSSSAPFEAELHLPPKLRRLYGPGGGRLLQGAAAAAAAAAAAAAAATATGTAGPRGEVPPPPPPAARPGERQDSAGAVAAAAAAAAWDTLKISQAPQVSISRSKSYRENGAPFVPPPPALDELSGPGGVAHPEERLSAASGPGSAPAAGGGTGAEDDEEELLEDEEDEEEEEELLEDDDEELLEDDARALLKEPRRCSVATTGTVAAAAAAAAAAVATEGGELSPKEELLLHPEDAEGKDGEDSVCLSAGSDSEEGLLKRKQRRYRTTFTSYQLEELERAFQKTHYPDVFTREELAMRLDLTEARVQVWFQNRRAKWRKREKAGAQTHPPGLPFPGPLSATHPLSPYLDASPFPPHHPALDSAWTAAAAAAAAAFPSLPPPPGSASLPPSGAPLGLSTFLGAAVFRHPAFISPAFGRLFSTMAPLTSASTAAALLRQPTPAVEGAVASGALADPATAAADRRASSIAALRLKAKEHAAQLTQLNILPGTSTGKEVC", "GST-ARX (1–220)": "residues 1-220 of O35085", "GST-ARX (221–430)": "residues 221-430 of O35085", "UniProt Q09472": "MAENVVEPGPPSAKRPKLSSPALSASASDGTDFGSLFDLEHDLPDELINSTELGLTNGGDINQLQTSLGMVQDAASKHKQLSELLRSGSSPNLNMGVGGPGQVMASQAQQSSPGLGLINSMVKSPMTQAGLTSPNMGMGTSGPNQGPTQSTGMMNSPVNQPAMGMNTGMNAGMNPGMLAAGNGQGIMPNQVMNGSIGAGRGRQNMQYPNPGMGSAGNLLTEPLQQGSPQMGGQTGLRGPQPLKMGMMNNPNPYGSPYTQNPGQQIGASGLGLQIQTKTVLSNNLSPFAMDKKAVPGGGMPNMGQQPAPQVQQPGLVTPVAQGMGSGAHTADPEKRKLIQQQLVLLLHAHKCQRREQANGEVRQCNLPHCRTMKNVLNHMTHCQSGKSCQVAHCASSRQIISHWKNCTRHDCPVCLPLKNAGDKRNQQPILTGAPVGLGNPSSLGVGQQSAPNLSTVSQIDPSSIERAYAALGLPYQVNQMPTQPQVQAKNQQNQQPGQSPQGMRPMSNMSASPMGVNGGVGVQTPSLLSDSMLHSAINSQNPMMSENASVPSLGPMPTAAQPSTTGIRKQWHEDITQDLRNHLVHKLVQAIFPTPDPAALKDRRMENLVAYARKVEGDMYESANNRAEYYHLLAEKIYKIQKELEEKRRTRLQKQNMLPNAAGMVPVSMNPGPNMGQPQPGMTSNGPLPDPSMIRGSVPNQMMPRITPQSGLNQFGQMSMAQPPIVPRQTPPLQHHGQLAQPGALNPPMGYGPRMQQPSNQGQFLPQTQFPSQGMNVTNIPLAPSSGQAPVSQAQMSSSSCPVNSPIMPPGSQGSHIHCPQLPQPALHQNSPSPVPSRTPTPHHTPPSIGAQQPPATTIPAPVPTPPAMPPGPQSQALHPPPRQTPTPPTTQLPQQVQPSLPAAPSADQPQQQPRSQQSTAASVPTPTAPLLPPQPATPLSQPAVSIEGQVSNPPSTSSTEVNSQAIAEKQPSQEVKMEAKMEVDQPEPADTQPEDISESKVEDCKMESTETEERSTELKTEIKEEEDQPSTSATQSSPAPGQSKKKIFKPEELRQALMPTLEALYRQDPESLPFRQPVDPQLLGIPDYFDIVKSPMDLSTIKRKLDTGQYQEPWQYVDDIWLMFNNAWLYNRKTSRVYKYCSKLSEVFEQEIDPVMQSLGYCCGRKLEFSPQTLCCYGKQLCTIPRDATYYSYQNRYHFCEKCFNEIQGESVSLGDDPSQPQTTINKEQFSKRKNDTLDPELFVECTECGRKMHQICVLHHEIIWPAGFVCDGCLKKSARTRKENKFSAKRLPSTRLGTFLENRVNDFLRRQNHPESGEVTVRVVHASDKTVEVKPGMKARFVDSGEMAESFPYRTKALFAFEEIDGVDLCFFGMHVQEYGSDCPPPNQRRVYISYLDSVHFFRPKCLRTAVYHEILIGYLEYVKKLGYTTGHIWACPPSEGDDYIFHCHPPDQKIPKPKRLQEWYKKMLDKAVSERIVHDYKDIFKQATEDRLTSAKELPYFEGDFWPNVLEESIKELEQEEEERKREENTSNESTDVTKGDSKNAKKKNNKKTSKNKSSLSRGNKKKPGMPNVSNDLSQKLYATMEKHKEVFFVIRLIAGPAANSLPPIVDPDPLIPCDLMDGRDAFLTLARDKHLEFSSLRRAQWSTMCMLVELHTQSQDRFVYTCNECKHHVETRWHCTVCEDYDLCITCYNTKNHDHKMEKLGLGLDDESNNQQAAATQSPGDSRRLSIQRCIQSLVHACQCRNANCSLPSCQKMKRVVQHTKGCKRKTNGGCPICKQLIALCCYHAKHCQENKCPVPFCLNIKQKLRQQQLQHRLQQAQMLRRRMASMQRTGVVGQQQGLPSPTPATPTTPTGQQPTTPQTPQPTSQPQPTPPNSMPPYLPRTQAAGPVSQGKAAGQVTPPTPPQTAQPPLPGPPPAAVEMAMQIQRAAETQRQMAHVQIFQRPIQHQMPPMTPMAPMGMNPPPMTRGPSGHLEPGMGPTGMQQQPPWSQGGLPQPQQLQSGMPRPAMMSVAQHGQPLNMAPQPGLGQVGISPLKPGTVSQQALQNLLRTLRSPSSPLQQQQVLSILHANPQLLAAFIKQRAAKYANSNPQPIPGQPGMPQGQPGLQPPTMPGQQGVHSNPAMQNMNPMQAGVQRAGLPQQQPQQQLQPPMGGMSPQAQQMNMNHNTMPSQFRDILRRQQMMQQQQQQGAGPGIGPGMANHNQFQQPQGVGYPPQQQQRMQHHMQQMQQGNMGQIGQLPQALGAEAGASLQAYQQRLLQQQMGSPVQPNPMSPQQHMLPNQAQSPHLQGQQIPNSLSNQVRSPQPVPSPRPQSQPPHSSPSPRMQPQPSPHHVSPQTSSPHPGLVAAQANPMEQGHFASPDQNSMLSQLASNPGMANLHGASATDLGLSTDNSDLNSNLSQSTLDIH"}, "source": "paper PMC5245867", "molecules": {"B1": {"name": "BCL9-HA (protein, UniProt Q9D219 1-1425)", "chain": "MHPSNPKVRSSPSGNTQSSPKSKQEVMVRPPTVMSPSGNPQLDSKFSNQGKPGGSASQSQPSPCDSKSGGHTPKALPGPGGSMGLKNGAGNGAKGKGKRERSISADSFDQRDPGTPNDDSDIKECNSADHIKSQESQHTPHSMTPSTATAPRSSTPSHGQTPAPEPISAQKTPAKVVYVFSTEMANKAAEAVLKGQVETIVSFHIQNISNSKSERSTAPLNTQIPTLRNDPKPLPQQPPAPANQDQNSSQNARLQPTPPIQAPAPKPTAAPRPLDRESPGVENKLIPPVGSPGSSTPLPPDGTGPNSTPNNRAVTPVSQGSNSSSADPKAPPPPPVSGGEPPTLGENPDGLSQEQLEHRERSLQTLRDIQRMLFPDEKEFTAGQTGGPQQNTGVLDGPQKKPDGPIQAMMSQSQSLGKGPGPRTDVGAPFGPQGHRDVPFSPDEMVPPNMSSQSGPIGPDHLDHMTPEQIAWLKLQQEFYEEKRRKQEQVVVQQCSLQDMMVHQHGPRGVVRGPPPPYQMAPGEGWAPGAEPFPDGINISHSLPPRGMAPHPNMPGSQMRLPGFAGMINSEMEGPNVPNPASRPGLSGVSWPDDVPKIPDGRNFPPGQGVFSGPGRGERFPNPQGLSEEMFQQQLAEKQLALPPGMSMEGIRPGMEMNRMIPGSQRHMEPGSNPIFPRIPVEGPLSPSRGDFPKGMPPQIGPGRELEFGMVPGGMKGEVNLNVNMGSSSQMIPQKMREAGAGPEEMMKLRPGSSEMLPAQQKMVPLPFGEHPQQEYGVGPRPFLPMSQGPGSNSGLRNLREPIGPDQRTNSRLSHMPPLPLNPSSNPTSLSTAPPVQRGLGRKPLDISVAGSQVHSPGINPLKSPTMHQVQSPMLGSPSGNLKSPQTPSQLAGMLAGPAAAASIKSPPVLGSAAASPVHLKSPSLPAPSPGWTSSPKPPLQSPGIPPNHKAPLTMASPAMLGSVESGGPPPPTASQPASVNIPGSLPSSTPYPMPPEPTLSQNPLSIMMSRMSKFAMPSSTPLYHDAIKTVASSDDDSPPARSPNLPSMNSMPGMGINTQNPRISGPNPVVPMPTLSPMGMTQPLSHSNQMPSPNAMGPSIPPHGVPMGPGLMSHNPIMGHGSQEPPMVPQGRMGFPQGFPPVQSPPQQVPFPHNGPTGGQGNFPGGIGFPGEGPLGRPSNLPQSSADPALCKPGGPGAPDSFTVLGNSMPSVFTDPDLQEVIRPGATGIPEFDLSRIIPSEKPSQTLQYFPRGEVPGRKQPQGPGPGFSHMQGMMSDQAPRMGLALPGMGGPGPVGTPDIPLGTSPSMPGHNPMRPPAFLQQGMMGPHHRMMSPAQSTVPGPATLMTNPAAAVGMIPGKDRGPAGLYTHPGPVGSPGMMMSMQGMMGPQQNIMIPPQMRPRGMAADVGMGGFSQGPGNPGNMMF"}, "B2": {"name": "B-cell CLL/lymphoma 9 (BCL9) (protein, UniProt Q9D219 1-1425)", "chain": "B1 chain"}}, "key": {"GST-BCL9": {"target": "T1, GST-BCL9 (UniProt Q9D219)", "T1 sequence": "B1 chain", "assay": "pull-down; GST fusion and partner co-expressed in HEK293T/HEK293 cells, lysed in TNE buffer (20 mM Tris-HCl pH 7.4, 150 mM NaCl, 0.5% Triton X-100, 5% glycerol), glutathione-sepharose 4B 45 min on ice, five washes, Western blot"}, "[1]": {"target": "GST-ΔN89-β-catenin (90–781) (mouse) (UniProt Q02248)", "assay": "pull-down; GST fusion and partner co-expressed in HEK293T/HEK293 cells, lysed in TNE buffer (20 mM Tris-HCl pH 7.4, 150 mM NaCl, 0.5% Triton X-100, 5% glycerol), glutathione-sepharose 4B 45 min on ice, five washes, Western blot"}, "[2]": {"target": "GST-ΔN89-β-catenin-D164A (mouse) (UniProt Q02248)", "assay": "pull-down; GST fusion and partner co-expressed in HEK293T/HEK293 cells, lysed in TNE buffer (20 mM Tris-HCl pH 7.4, 150 mM NaCl, 0.5% Triton X-100, 5% glycerol), glutathione-sepharose 4B 45 min on ice, five washes, Western blot"}, "[3]": {"target": "GST-β-catenin (90–694) (mouse) (UniProt Q02248)", "assay": "pull-down; GST fusion and partner co-expressed in HEK293T/HEK293 cells, lysed in TNE buffer (20 mM Tris-HCl pH 7.4, 150 mM NaCl, 0.5% Triton X-100, 5% glycerol), glutathione-sepharose 4B 45 min on ice, five washes, Western blot"}, "[4]": {"target": "GST-β-catenin (1–781) (mouse) (UniProt Q02248)", "assay": "pull-down; GST fusion and partner co-expressed in HEK293T/HEK293 cells, lysed in TNE buffer (20 mM Tris-HCl pH 7.4, 150 mM NaCl, 0.5% Triton X-100, 5% glycerol), glutathione-sepharose 4B 45 min on ice, five washes, Western blot"}, "GST-ARX (221–430)": {"target": "GST-ARX (221–430) (UniProt O35085)", "assay": "pull-down; GST fusion and partner co-expressed in HEK293T/HEK293 cells, lysed in TNE buffer (20 mM Tris-HCl pH 7.4, 150 mM NaCl, 0.5% Triton X-100, 5% glycerol), glutathione-sepharose 4B 45 min on ice, five washes, Western blot"}, "GST-ARX (WT)": {"target": "GST-ARX (WT) (UniProt O35085)", "assay": "pull-down; GST fusion and partner co-expressed in HEK293T/HEK293 cells, lysed in TNE buffer (20 mM Tris-HCl pH 7.4, 150 mM NaCl, 0.5% Triton X-100, 5% glycerol), glutathione-sepharose 4B 45 min on ice, five washes, Western blot"}, "GST-ARX (1–220)": {"target": "GST-ARX (1–220) (UniProt O35085)", "assay": "pull-down; GST fusion and partner co-expressed in HEK293T/HEK293 cells, lysed in TNE buffer (20 mM Tris-HCl pH 7.4, 150 mM NaCl, 0.5% Triton X-100, 5% glycerol), glutathione-sepharose 4B 45 min on ice, five washes, Western blot"}, "[5]": {"target": "Aristaless related homeobox (ARX) protein (mouse (endogenous in E14.5 forebrain)) (UniProt O35085)", "assay": "co-IP; E14.5 mouse forebrain lysates immunoprecipitated with ARX antibody, Western blot with β-catenin, LRRFIP2 and BCL9 antibodies; IgG control"}, "[6]": {"target": "GST-ΔN89-β-catenin-D164A (mouse) (UniProt Q02248)", "assay": "pull-down; GST fusion and partner co-expressed in HEK293T/HEK293 cells, lysed in TNE buffer (20 mM Tris-HCl pH 7.4, 150 mM NaCl, 0.5% Triton X-100, 5% glycerol), glutathione-sepharose 4B 45 min on ice, five washes, Western blot", "remark": "listed apart in the source"}}, "note": "Where two headings read alike, the source gives them in different places. No constants are given. Whether binding was seen depends on the method and setting. In cells and extracts the contact can be indirect. Some binding calls cover weakened binding; strength is not graded here. For some of these results: Sequences can lack the tags named with a protein."}
{"molecule": "ARX (1–470)-MYC (from UniProt O35085 1-470) (domain or fragment)", "values": [{"measurement": "binding", "setting": "GST-BCL9", "result": "binds"}]}
{"molecule": "ARX (221–430)-MYC (from UniProt O35085 221-430) (domain or fragment)", "values": [{"measurement": "binding", "setting": "GST-BCL9", "result": "no binding"}]}
{"molecule": "ARX-MYC (full-length ARX) (from UniProt O35085 1-564)", "values": [{"measurement": "binding", "setting": "[1]", "result": "binds"}, {"measurement": "binding", "setting": "[2]", "result": "binds"}, {"measurement": "binding", "setting": "[3]", "result": "binds"}, {"measurement": "binding", "setting": "[4]", "result": "binds"}, {"measurement": "binding", "setting": "GST-BCL9", "result": "binds"}]}
{"molecule": "P300-HA (from UniProt Q09472 1-2414)", "values": [{"measurement": "binding", "setting": "GST-ARX (221–430)", "result": "no binding"}, {"measurement": "binding", "setting": "GST-ARX (WT)", "result": "binds"}, {"measurement": "binding", "setting": "GST-ARX (1–220)", "result": "no binding"}]}
{"molecule": "β-catenin (CTNNB1) (from UniProt Q02248 1-781)", "values": [{"measurement": "binding", "setting": "[5]", "result": "binds"}]}
{"molecule": "B1", "values": [{"measurement": "binding", "setting": "[6]", "result": "binds weakly"}]}
{"molecule": "B2", "values": [{"measurement": "binding", "setting": "[5]", "result": "binds"}]}
